Measured values taken from patent publication US20130209454A1.

Target: 93TH057 gp120 core (HIV-1)
Test: structure PDB 3NGB, AreaIMol, 1.4 Å probe

“VRC01 Fab (structure of VRC01-93TH057, PDB code 3NGB)” gave a buried surface area, CDR1 (VRC01 heavy chain) of 20 Å^2, a buried surface area, FWR3 (VRC01 heavy chain) of 521 Å^2 and a buried surface area, CDR1 (VRC01 light chain) of 114 Å^2. It also gave a buried surface area, FWR3 (VRC01 light chain) of 0 Å^2.

Entries with a single value are a further part of the results.
